In PubChem BioAssay AID1745845 (National Center for Advancing Translational Sciences (NCATS), 2022):
Hit rate of the full screen: of about 360,000 compounds, about 2,600 (0.72%) were called active. Inconclusive means that the source gave no clear call. Such entries were picked first, then a sample of the others. The call rests on the fitted dose curve; in most records, active means well fitted inhibition curve with a large enough effect; inconclusive means small, poorly fitted or top-dose-only effect; inactive means no such curve, though single readings can be large or run the other way. Where the call is inconclusive, the potency comes from a doubtful curve fit.

assay: Primary qHTS for Inhibitors of ATXN expression; settings: HEK-293 ATXN2-luciferase reporter, luminescence, 24 h; series mostly up to 57 µM; further: nearly all actives have a fitted effect of over 55% in size
In short: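 ATXN2-luciferase reporter cells (luciferase flanked by upstream and downstream ATXN2 gene portions) were treated 24 h at 37 °C with compounds at up to 57 uM. SteadyGlo luminescence gave expression; GF-AFC fluorescence gave viability.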
Potency means the concentration at half of the fitted maximal effect; tags describe the fitted curve by direction and shape.

Compound	Potency
Cc1c(P(=S)(c2ccccc2)c2ccccc2)[n+]2ccccc2n1C/C=C/c1ccccc1	inconclusive: 14.1 µM [inhibitor, partial curve, poor fit]
O=C(CN1C(=O)c2ccccc2C1=O)c1ccccc1	inactive
O=[N+]([O-])c1ccc(N2CCN(S(=O)(=O)c3ccc(Cl)c(Cl)c3)CC2)cc1NCCN1CCOCC1	inconclusive: 0.708 µM [inhibitor, partial curve, poor fit]
CCCOc1ccc2c(c1)C(=NN=C(N)N)c1cc(OCCC)ccc1-2	active: 20 µM
CSc1nc2sc(-c3ccccc3)cc2c(=O)n1N	inconclusive: 25.1 µM [inhibitor, single point]
Cc1nc2c(OCc3ccc(C(F)(F)F)cc3)cccn2c1N(C)CC1CC1	active: 35.5 µM
Cc1nc(N=C(N)N)nc2c(C)cccc12	inconclusive: 21.2 µM [inhibitor, partial curve]
O=C(NC1CCCCC1)c1ccc(CSc2nc3ccncc3n2Cc2ccc(F)cc2)cc1	inconclusive: 31.6 µM [inhibitor, single point]
CCCCN(CC)S(=O)(=O)c1ccc(C(=O)N(CCCN(C)C)c2nc3cc(C)cc(C)c3s2)cc1	inconclusive: 37.7 µM [inhibitor, partial curve, poor fit]
O=C(c1c(F)c(F)c(F)c(F)c1F)N1CCN(Cc2ccc3c(c2)OCO3)CC1	inconclusive: 3.77 µM [inhibitor, full curve, poor fit]
CC1=C(C(N)=O)C(c2cccs2)n2nc(-c3cccc(Cl)c3)nc2N1 (configuration not stated)	inactive
CN1CCN(C(=O)Cn2ncc3c4ccccc4n(Cc4ccc(Cl)cc4)c3c2=O)CC1	inconclusive: 39.8 µM [inhibitor, single point]
Cc1nn(C(=O)c2cccc(F)c2)c(C)c1S(=O)(=O)N1CCOCC1	inactive
COc1cccc2sc(N(CCCN(C)C)C(=O)c3sc4ccccc4c3Cl)nc12	inconclusive: 39.8 µM [inhibitor, single point]
COC(=O)[C@]12CCCCC=C1N(Cc1cccc3ccccc13)C(=O)[C@H](CC(=O)NCc1ccc(C)o1)C2	inconclusive: 39.8 µM [inhibitor, single point]
N#Cc1cc2cc3c(cc2nc1N1CCCCC1)OCCO3	inactive
CC1=C(C(=O)OCc2ccc(C)cc2)C(c2cccc(F)c2F)CC(=O)N1 (configuration not stated)	inactive
CC(C)Oc1ccc(C(=O)CCN2CCCCC2)cc1	inconclusive: 8.91 µM [inhibitor, partial curve, poor fit]
COc1cccc(-n2c(SCC(=O)Nc3cc(C)on3)nc3c([nH]c4ccccc43)c2=O)c1	inactive
CC(=O)N(c1ccccc1C)C1CCCC1	inactive
CCn1c(=O)c2cc(C(=O)NCCCN3CCC(C)CC3)sc2c2ccccc21	inconclusive: 35.5 µM [inhibitor, single point]
COc1cc2c(cc1OC)C(c1ccc(-c3ccc(Cl)cc3Cl)o1)=NCC2	inconclusive: 10 µM [inhibitor, partial curve]
C=C(C)Cn1c(SCC(=O)N/N=C/c2c(O)ccc3ccccc23)nc2ccccc2c1=O	inconclusive: 31.6 µM [inhibitor, single point]

Compound	Potency
CCCCCc1nc2sc3c(c2c(=O)n1NC(=O)c1ccc([N+](=O)[O-])cc1)CC(C)(C)OC3	inconclusive: 33.6 µM [inhibitor, single point]
CCCOc1ccc(C(F)(F)F)cc1NS(=O)(=O)c1ccc(Cl)nc1	inconclusive: 20 µM [inhibitor, partial curve, poor fit]
O=C(Cn1c(=O)oc2cc(S(=O)(=O)N3CCCCC3)ccc21)NCc1ccc(Cl)cc1	inconclusive: 28.2 µM [inhibitor, single point]
O=C(CN(c1cccc(C(F)(F)F)c1)S(=O)(=O)c1ccc(Cl)c([N+](=O)[O-])c1)NCc1ccccc1Cl	inconclusive: 28.2 µM [inhibitor, single point]
CN(C)c1nc2c(N)ncnc2n1C1OC(CO)C(O)C1O (configuration not stated)	inactive
COc1ccc2nc(C)cc(Nc3ccc(Cl)c(Cl)c3)c2c1	active: 25.1 µM
CC1(C)CC(=O)C(C(C#Cc2ccccc2)C2=C(O)CC(C)(C)CC2=O)=C(O)C1	inconclusive: 39.8 µM [inhibitor, single point]
CCOc1cc(/C=C/C(=O)N(CC)CC(=O)NCc2cccs2)cc(Cl)c1OC	inactive
COc1ccc(OCC(=O)NNc2c3ccccc3nc3ccccc23)cc1	inconclusive: 35.5 µM [inhibitor, single point]
O=C(CCCOc1ccc(Br)cc1)Nc1ccc(S(=O)(=O)N2CCOCC2)cc1	inconclusive: 35.5 µM [inhibitor, single point]
Cc1cccc2c(C(=O)N3CCN(C(=O)c4ccco4)CC3)cc(-c3cccc(Br)c3)nc12	inconclusive: 29.9 µM [inhibitor, partial curve, poor fit]
Cc1ccc(OCc2ccc(-c3nc(C#N)c(NCc4ccccc4Cl)o3)o2)cc1	inconclusive: 39.8 µM [inhibitor, single point]
OC(CNCC(c1ccc(Cl)cc1Cl)c1c[nH]c2ccccc12)c1ccccc1 (configuration not stated)	inconclusive: 33.6 µM [inhibitor, single point]
COc1cc(-c2coc3c(C(=O)NCc4ccc(N(C)C)cc4)cccc23)ccc1O	inconclusive: 39.8 µM [inhibitor, single point]
COc1ccccc1Nc1nn2c(=O)c3ccc(C(=O)NCCC4=CCCCC4)cc3nc2s1	active: 3.16 µM
CCCc1cc(C(=O)N2CCN(c3ccc(C(F)(F)F)cn3)CC2)sc1C	inconclusive: 25.1 µM [inhibitor, partial curve, poor fit]
NC(N)=Nc1nc(-c2ccccc2)c2ccccc2n1	inconclusive: 25.1 µM [inhibitor, partial curve, poor fit]
CCCCn1c(NCc2ccc(N(C)C)cc2)nc2ccccc21	inconclusive: 35.5 µM [inhibitor, single point]
Cc1ccc2nc(-c3ccc(SCC(=O)O)nc3)[nH]c2c1	inconclusive: 17.8 µM [inhibitor, single point]
CN(C)CCCOc1ccc(C(C)(C)c2ccccc2)cc1	inactive
CN1CCN(c2ccc(-c3cc(NC=O)c4ncc(-c5ccccc5)n4c3)cc2)CC1	inconclusive: 39.8 µM [inhibitor, single point]
CC(=O)C1=CCC(c2cccc(Cl)c2)N(S(=O)(=O)c2ccc(C)cc2)C1 (configuration not stated)	inconclusive: 31.6 µM [inhibitor, single point]
COC(=O)c1ccc2c(c1)C(C)(C)C(/C=C/c1ccccc1O)=[N+]2C	active: 3.55 µM

Compound	Potency
CC(CCc1ccc(O)cc1)NCCc1ccc(O)c(O)c1 (configuration not stated)	inconclusive: 19.3 µM [inhibitor, partial curve, poor fit]
CN1CCN(C(=O)/C(=C/c2cccs2)NC(=O)c2ccco2)CC1	inconclusive: 0.631 µM [inhibitor, partial curve, poor fit]
COc1ccc(CNC(=O)Cn2c(=O)cc(-c3ccccc3)c3c(C)nn(C)c32)cc1	inactive
Cc1cccc2nc(-c3cccnc3)c(NCCC(C)C)n12	inactive
CC(C)(C)C(=O)NC(=S)Nc1cc(C(F)(F)F)ccc1N1CCOCC1	inactive
COc1cccc(/C=N/Nc2nc3ccccc3[nH]2)c1OC	inactive
CCn1c(C)nc2cc(S(=O)(=O)Nc3ccc(C)cc3)ccc21	inactive
COc1ccc(NC(=O)c2c(NCc3cccc(OC)c3)sc3c2CCCC3)cc1	inconclusive: 39.8 µM [inhibitor, single point]
CCOC(=O)c1ccc(-n2[nH]c(-c3ccccc3)cc2=O)cc1	inconclusive: 22.4 µM [inhibitor, partial curve, poor fit]
Cc1ccc2occ(CC(=O)N(Cc3ccc(C(C)C)cc3)C3CCS(=O)(=O)C3)c2c1 (configuration not stated)	inconclusive: 39.8 µM [inhibitor, single point]
Cc1nc(-n2[nH]c3c(c2=O)CCCC3)[nH]c(=O)c1Cc1ccccc1	active: 8.91 µM
COc1ccc(C(=O)CN2C(=O)c3ccccc3S2(=O)=O)cc1Br	inconclusive: 12.6 µM [inhibitor, partial curve, poor fit]
COc1ccc(CCn2c(C)cc(C(=O)CSc3nnc(N)s3)c2C)cc1	inactive
CCc1ccc(S(=O)(=O)/N=C2\C=C(Nc3ccc(C(=O)O)cc3)C(=O)c3ccccc32)cc1	inconclusive: 39.8 µM [inhibitor, single point]
CC(=O)N(O)c1ccc(C=Cc2ccccc2)cc1	inconclusive: 0.355 µM [inhibitor, full curve]
COc1ccc(-c2cc3nc(CCl)[nH]c(=O)c3s2)cc1	active: 12.6 µM
CCc1nc2c(OCCC3CCCCC3)cccn2c1N(C)C(=O)c1ccc(OC)cc1	inconclusive: 22.4 µM [inhibitor, single point]
O=C(O)c1cccc(N/N=C/c2cccnc2)c1	inconclusive: 23.8 µM [inhibitor, single point]
CCS(=O)(=O)N1CCC(C(=O)O)CC1	inactive
CNC(C)C(=O)NC(C(=O)N1CCCC1C(=O)NNc1ccccc1)C(C)C (configuration not stated)	inconclusive: 1 µM [inhibitor, full curve]
COc1ccccc1S(=O)(=O)N(C)C[C@H]1Oc2cc(C#CCC3CCCC3)ccc2S(=O)(=O)N([C@H](C)CO)C[C@H]1C	inconclusive: 31.6 µM [inhibitor, single point]
